# Test results from PubChem BioAssay (NCATS).
# Inconclusive means that the source gave no clear call. Such entries were picked first, then a sample of the others. For some assays here: No potency is given beside an inconclusive call; the fits are too rough. Active and inactive are the calls of the source. Unless noted, calls come from the whole dose curve; as a rule, active = well fitted curve in either direction with a large enough effect (not every such curve was filed as active); inconclusive = small, poorly fitted or top-dose-only effect, or another doubt; inactive = flat fitted curve, though single readings scatter.
# Assays:
# [1] = NFAT Signaling Pathway (AID 444); conditions: Jurkat NFAT-bla M1, carbachol, beta-lactamase ratio, 5 h; at 17.2 µM (top of the series) unless noted;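 note: carbachol stimulus at about its EC50 of 1 µM final; % is set by controls: 0 for no effect and ±100 for the full control effect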
# In short: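 Read-out: CCF4 FRET ratio (460 nm/530 nm) after 1 h RT dye loading, used for %activity and AC50 from titration series. Cells: Jurkat NFAT-β-lactamase/M1 line, treated with compound plus 1 uM carbachol for 5 h, 37 °C.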
# [2] = qHTS Assay for Identification of Small Molecule Agonists for Hypoxia Response Element Signaling Pathway (AID 914; active = well fitted activation curve with a large enough effect in the signal ratio, with a control signal flat, not every such curve was filed as active; inconclusive = small, poorly fitted or top-dose-only effect, or effect the other way, or a change in a side signal; the % refers to the signal ratio; note: potency is the fitted concentration of half-maximal effect; for activation: top concentration of the series differs between compounds; % of control where 0% means no effect); conditions: ME-180 (cervical carcinoma) HRE-bla reporter, beta-lactamase ratio, CoCl2, 17 h; activation: stronger effect = higher value
# In short: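 qHTS titration; ME-180 HRE-bla cells; EC50 CoCl2 co-treatment, 17 h at 37 degrees Celsius; CCF4 dye, ex 405nm, em 460nm and 530nm; %Activity from ratio; AC50.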
# Tags give direction and shape of the fitted curve or compound fluorescence and quenching.
SMILES,"activity change, negative = inhibition [1]",activation [2],Potency [2]
CC(CN1CCN(C)CC1)OC(=O)c1ccc(Cl)cc1Cl (centres undefined),inconclusive: -45.7% [inhibitor],inactive: -4.39%,–
COc1nc(N(C)S(=O)(=O)c2ccc(C)cc2)nc(C)c1Cl,inconclusive: -38.3% [inhibitor],inactive: -6.79%,–
O=c1c2c3c(sc2n2cnnc2n1Cc1ccccc1)CN(Cc1ccccc1)CC3,inconclusive: -49.7% [inhibitor],–,"inconclusive [inhibitor, partial curve]"
CCO/C(C)=N/n1c2nc3ccccc3nc2c2c(=O)n(Cc3ccccc3Cl)c(C)nc21,inconclusive: -51.2% [inhibitor],inconclusive: 27.8%,–
Cc1nc(SCC(=O)Nc2ccc3c(c2)OCO3)c(C#N)c2c1CCCC2,inactive: -1.28%,–,"inconclusive [inhibitor, partial curve, poor fit]"
O=c1cc(-c2ccco2)nc(-c2cccs2)o1,inconclusive: -44% [inhibitor],inconclusive: -33.9%,–
CC(C)(C)OC(=O)NCCC(=O)Oc1ccc2ccc(=O)oc2c1,inconclusive: 37.8% [activator],–,"inconclusive [activator, single point]"
